PubChem BioAssay AID190 (DTP/NCI, 2004)
Inconclusive results and toxic doses are left out. Not every entry of the source has a single result; some have several. Only these are listed. There may be further records. Values given together are repeats across runs, samples, wells, individuals or studies.

System: AKR/Lw mice, AKR lymphoma ip, median survival T/C
Experiment: NCI In Vivo Anticancer Drug Screen. Data for tumor model Lymphoma AKR (Transplanted) (intraperitoneal) in AKR/Lw mice
Conditions: endpoint: median survival time, higher = longer survival
Protocol: The antitumor activity of compounds was measured in mice bearing transplantable tumors. Survival or tumor size were measured and the results are expressed as the measurement made in the treated group (T) divided by the measurement made in the vehicle treated control group (C). The tumor model used in this assay is Lymphoma AKR (Transplanted) (intraperitoneal) in AKR/Lw mice

[1] = dose: 150.0 mg/kg/injection, schedule: Q01DX009 (ip), vehicle: saline

## N[C@@H](Cc1ccc(N(CCCl)CCCl)cc1)C(=O)O
dose: 6.0 mg/kg/injection, schedule: Q01DX001 (ip), vehicle: Klucel (hydroxypropylcellulose) (HPC)
  T/C: 115 % of control and 160 % of control

## CN(C)C(=O)c1cccc(COc2ccc(N3C(N)=NC(N)=NC3(C)C)cc2Cl)c1
dose: 6.2 mg/kg/injection, schedule: Q04DX003 (ip), vehicle: saline
  T/C: 100 % of control and 333 % of control
dose: 15.0 mg/kg/injection, schedule: Q04DX003 (ip), vehicle: saline
  T/C: 102 % of control and 188 % of control

## O=C[C@@H](CO)O[C@H](C=O)n1cnc2c(=O)[nH]cnc21
[1]
  T/C: 106 % of control and 152 % of control

## CC(=O)NNC(=O)c1ccccn1
dose: 125.0 mg/kg/injection, schedule: Q01DX001 (ip), vehicle: Klucel (hydroxypropylcellulose) (HPC)
  T/C: 94 % of control and 150 % of control

## O=c1[nH]cc(F)c(=O)[nH]1
dose: 60.0 mg/kg/injection, schedule: Q01DX001 (ip), vehicle: saline
  T/C: 113 % of control and 172 % of control

## Cc1c2ccncc2c(C)c2c1[nH]c1ccccc12
dose: 25.0 mg/kg/injection, schedule: Q01DX005 (ip), vehicle: other
  T/C: 97 % of control and 175 % of control

## CCCCCCCCCCCCCCCC(=O)OCC1OC(n2ccc(N)nc2=O)C(O)C1O (configuration not stated)
dose: 20.0 mg/kg/injection, schedule: Q01DX010 (ip), vehicle: saline with Tween-80
  T/C: 90 % of control and 272 % of control
dose: 100.0 mg/kg/injection, schedule: Q09DX002 (ip), vehicle: saline with Tween-80
  T/C: 92 % of control and 153 % of control

## O=P1(N(CCCl)CCCl)NCCCO1 (configuration not stated)
dose: 5.0 mg/kg/injection, schedule: Q01DX009 (ip), vehicle: saline
  T/C: 100 % of control and 160 % of control
dose: 15.0 mg/kg/injection, schedule: Q01DX009 (ip), vehicle: saline
  T/C: 120 % of control and 156 % of control
dose: 200.0 mg/kg/injection, schedule: Q07DX003 (ip), vehicle: saline
  T/C: 106 % of control and 153 % of control

## N=c1ccn2c(n1)OC1C(O)C(CO)OC12 (configuration not stated)
dose: 75.0 mg/kg/injection, schedule: Q01DX009 (ip), vehicle: saline
  T/C: 105 % of control and 152 % of control
[1]
  T/C: 111 % of control and 156 % of control

## O=NN(CCCl)C(=O)NCCCl
dose: 2.0 mg/kg/injection, schedule: Q04DX004 (ip), vehicle: saline
  T/C: 115 % of control and 200 % of control

## O=P1(NCCCl)OCCCN1CCCl (configuration not stated)
dose: 40.0 mg/kg/injection, schedule: Q01DX009 (ip), vehicle: saline
  T/C: 102 % of control and 162 % of control
dose: 50.0 mg/kg/injection, schedule: Q07DX003 (ip), vehicle: saline
  T/C: 113 % of control and 168 % of control

## O=c1[nH]c(=O)n(C2CC(O)C(CO)O2)cc1F (configuration not stated)
dose: 12.5 mg/kg/injection, schedule: Q01DX009 (ip), vehicle: saline
  T/C: 110 % of control and 156 % of control

## Nc1ncn(C2OC(CO)C(O)C2O)c(=O)n1 (configuration not stated)
dose: 6.0 mg/kg/injection, schedule: Q04DX003 (ip), vehicle: water
  T/C: 122 % of control and 150 % of control
dose: 6.7 mg/kg/injection, schedule: Q04DX004 (ip), vehicle: saline
  T/C: 121 % of control and 161 % of control
dose: 6.7 mg/kg/injection, schedule: Q04DX008 (ip), vehicle: saline
  T/C: 119 % of control and 175 % of control
dose: 35.0 mg/kg/injection, schedule: Q01DX001 (ip), vehicle: saline
  T/C: 100 % of control and 184 % of control
